Test results reported in PubChem BioAssay (NCATS).
“And” between values parts separate entries of the source, which are not always exact repeats. Identical values can stand only once. The list shows a part of the results. These are further read-outs of the screen, such as a control signal, another cell line or another target. No call is given for them. Compounds called inactive in the main read-out are mostly missing here. For part of these data: The note in brackets gives the kind of curve behind each potency; many fits are weak.

Key:
[1] = qHTS Assay for Lipid Storage Modulators (AID 1519); details: Drosophila S3 cells, BODIPY lipid droplet/cell ratio, laser cytometry, cells loaded with oleic acid
Procedure, shortened: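 Cells seeded at 5,000 per well were treated with compounds over a concentration series and loaded with oleic acid (400 uM, as added). Lipid droplet fluorescence (488 nm excitation, 500-530 nm channel) was read by laser-scanning cytometry and normalized to 20 uM Triacsin C.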

[2] = qHTS Assay for Modulators of Human Peripheral Myelin Protein 22 (PMP22) Expression/Activity (AID 1967); details: Cell-based PMP22 reporter, dual-color luciferase ratio
Procedure, shortened: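 Mouse MSC80 Schwann cells carrying Pmp22 promoter–green click beetle luciferase plus EF-alpha–red luciferase control, dosed 24 h at 37 °C. Dual-filter luminescence, overlap-corrected; %Activity from green/red ratio normalised to untreated cells, concentration-response curves fitted.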

[3] = qHTS Validation Assay to Find Inhibitors of Chronic Active B-Cell Receptor Signaling (AID 485345); details: ABC-DLBCL cells, chronic BCR signaling reporter
Procedure, shortened: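 TMD8 ABC-DLBCL cells stably carrying doxycycline-inducible IkappaBalpha–green luciferase fusion plus unfused red luciferase; compounds 46 uM to 3 nM, 4 h at 37C with doxycycline. Corrected green/red luminescence ratio normalized to 10 uM MG-132 and basal cell wells; curves fitted.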

[4] = Nrf2 qHTS screen for inhibitors: Validation (AID 493153); details: A549 ARE-Fluc reporter, 18-24 h; AC50: CellTiter-Fluor fluorescence read, measured here: cytotoxicity CellTiter-Fluor AC50; viability change: measured here: cytotoxicity max response
Procedure, shortened: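 Luminescence from an ARE-firefly luciferase reporter in A549 cells gives Nrf2 inhibition; an earlier CellTiter-Fluor fluorescent read flags cytotoxicity. Cells in 5% FBS OPTI-MEM received compound dilution series for 18-24 h at 37°C.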

[5] = measured here: cell count channel max response
[6] = measured here: cell number channel AC50
[7] = measured here: lipid (BODIPY) channel AC50
[8] = measured here: lipid channel max response
[9] = measured here: red reporter channel AC50, EF-alpha promoter control reporter in MSC80 mouse Schwann cells
[10] = measured here: green reporter channel AC50, mouse Pmp22 promoter in mouse Schwann cells
Tags describe the fitted curve by direction and shape.

Structure (SMILES) | max response [1, 5] | AC50 [1, 6] | AC50 [1, 7] | max response [1, 8] | AC50 [2, 9] | AC50 [2, 10] | AC50 ([3]; measured here: CBG/CBR ratio read-out) | AC50 ([3]; measured here: CBR control luciferase (viability counter)) | viability change [4]
COc1cc(CNC(=O)CCCCCCC(C)C)ccc1O | 44.5% | 44.7 µM [rising, single point] | 44.7 µM [rising, single point] | 46.7% | 19 µM [rising, partial curve, poor fit] | – | – | – | –
CNC(=O)c1cc2c(cn1)[nH]c1ccccc12 | 80.9% and 86.2% | 1.26 µM [rising, full curve] | 1.26 µM [rising, full curve] | 108% and 84% | 84.9 µM [falling, single point] | – | – | – | –
Nc1ccc(N2C(=O)c3ccccc3C2=O)c(Cl)c1 | 69.5% | 0.0447 µM [rising, partial curve, poor fit] | 0.0447 µM [rising, partial curve, poor fit] | 70.2% | 75.7 µM [falling, single point] | – | – | – | –
Cc1cccc(C2CN(C)CCc3c2cc(O)c(O)c3Cl)c1 (stereo not given) | -28.9% | 2.82 µM [falling, full curve, poor fit] | 2.82 µM [falling, full curve, poor fit] | -31.1% | 42.6 µM [falling, partial curve, poor fit] | 21.3 µM [rising, full curve] | – | – | –
COc1ccccc1N1CCN(CCCNc2cc(=O)n(C)c(=O)n2C)CC1 | 26.5% and 68.4% | 31.6 µM [rising, partial curve, poor fit] | 31.6 µM [rising, single point] and 15.8 µM [rising, partial curve, poor fit] | 46.6% and 68.8% | 84.9 µM [falling, single point] | – | – | – | –
Cc1ccc(OCC(O)C(C)NC(C)C)c2c1CCC2 (stereo not given) | 51.9% | 39.8 µM [rising, single point] | 44.7 µM [rising, single point] | 54.1% | 95.3 µM [falling, single point] | 95.3 µM [falling, single point] | – | – | –
Cn1cc(C(=O)OCC2CCN(CCNS(C)(=O)=O)CC2)c2ccccc21 | 61.2% and 58.9% | 28.2 µM [rising, partial curve, poor fit] and 35.5 µM [rising, partial curve] | 31.6 µM [rising, partial curve, poor fit] and 35.5 µM [rising, partial curve] | 63.3% and 62.7% | 84.9 µM [falling, single point] | 67.5 µM [falling, partial curve] | – | – | –
OC[C@H]1O[C@@H](n2cnc3c(N[C@H]4CC5CCC4C5)ncnc32)[C@H](O)[C@@H]1O (stereo not given in full) | 59.3% | 1 µM [falling, full curve, poor fit] | 1 µM [falling, full curve, poor fit] | 61.2% | 60.1 µM [falling, partial curve, poor fit] | 84.9 µM [falling, single point] | – | – | –
CN(C)c1cc2c(Nc3ccc4c(cnn4Cc4ccccc4)c3)ncnc2cn1 | -98.5% | 20 µM [falling, partial curve, poor fit] | 20 µM [falling, partial curve, poor fit] | -109% | 33.8 µM [falling, full curve] | 26.9 µM [falling, full curve] | 18.4 µM [falling, partial curve] | 29.1 µM [falling, single point] | -11.6%
CCOC(=O)c1cnc2c(cnn2CC)c1NN=C(C)C | 110% and 62.1% | 1.26 µM [rising, full curve, poor fit] | 1.26 µM [rising, full curve, poor fit] | 147% and 64% | 75.7 µM [falling, partial curve] | – | – | – | –
Cc1cc(NC(=O)Nc2ccc3c(ccn3C)c2)sn1 | 55.8% and 42.2% | 562 nM [rising, full curve, poor fit] and 2.24 µM [falling, full curve, poor fit] | 501 nM [rising, full curve, poor fit] and 2.24 µM [falling, full curve, poor fit] | 76.1% and 44.5% | 1.9 µM [rising, full curve, poor fit] | 95.3 µM [falling, single point] | – | – | –
Nc1nc2c(nc(Br)n2C2O[C@H]3COP(=O)(O)O[C@@H]3C2O)c(=O)[nH]1 (stereo not given in full) | -91.9% | 39.8 µM [falling, single point] | 39.8 µM [falling, single point] | -93% | 84.9 µM [falling, single point] | – | – | – | –
CC(=O)O[C@]1(C(C)=O)CC[C@H]2C3C=C(Cl)C4=CC(=O)[C@@H]5C[C@H]5[C@]4(C)C3CC[C@@]21C (stereo not given in full) | 48.7% | 39.8 µM [rising, single point] | 39.8 µM [rising, single point] | 47.2% | 84.9 µM [falling, single point] | 84.9 µM [falling, single point] | – | – | –
